± gives the standard error. This sample is rich in variants without activity.
B1: glmS ribozyme (parent)
chain: AUAAAAGCGCCAGAACUACAGAAAUGUAGUUGACGAGGAGGAGGUUUAUCGAAUUUUCGGCGGAUGCCUCCAAA

Tests used:
Settings in all cases: with glucosamine-6-phosphate
glucosamine-6-phosphate [1] = variants of: B1; experiment: self-cleavage kobs at 40 uM GlcN6P; higher = faster cleavage; RNA array
Method in brief: (§1)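 Barcoded glmS ribozyme variants on sequenced MiSeq chips were transcribed in situ by E. coli RNA polymerase and tracked through a hybridised Cy3 probe at 37 °C. Glucosamine-6-phosphate (40 μM to 10 mM) in HEPES/KCl/Mg(OAc)2 buffer was flowed in, and tiles were imaged over ~14 h. Signals were normalised to baseline and to non-cleaving reference variants; per-tile medians were fit to one- or two-exponential decays to give kobs. kcat and KM came from weighted Michaelis–Menten fits across concentrations.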

glucosamine-6-phosphate [2] = variants of: B1; experiment: self-cleavage kobs at 2500 uM GlcN6P; higher = faster cleavage; RNA array
Method in brief: as §1

glucosamine-6-phosphate [3] = variants of: B1; experiment: self-cleavage kobs at 160 uM GlcN6P; higher = faster cleavage; RNA array
Method in brief: as §1

glucosamine-6-phosphate [4] = variants of: B1; experiment: self-cleavage kobs at 10000 uM GlcN6P; higher = faster cleavage; RNA array
Method in brief: as §1

glucosamine-6-phosphate [5] = variants of: B1; experiment: self-cleavage kobs at 640 uM GlcN6P; higher = faster cleavage; RNA array
Method in brief: as §1

Row | Variant | self-cleavage kobs at 40 uM GlcN6P (glucosamine-6-phosphate [1]) [s⁻¹] | self-cleavage kobs at 2500 uM GlcN6P (glucosamine-6-phosphate [2]) [s⁻¹] | self-cleavage kobs at 160 uM GlcN6P (glucosamine-6-phosphate [3]) [s⁻¹] | self-cleavage kobs at 10000 uM GlcN6P (glucosamine-6-phosphate [4]) [s⁻¹] | self-cleavage kobs at 640 uM GlcN6P (glucosamine-6-phosphate [5]) [s⁻¹]
1 | A15G G37C G63A C68U | < 1e-05 |  |  |  | 
2 | G29A G41C | < 1e-05 |  |  |  | 
3 | G29C U46G A52C C68A | < 1e-05 | < 1e-05 |  |  | 
4 | G29U A36G | < 1e-05 |  | < 1e-05 | < 1e-05 | 
5 | C19A U56G C68U | 0.000112 ± 3.6e-05 | 0.00041 ± 7.6e-05 |  | 0.000435 ± 9.2e-05 | 
6 | G29C U54G G60A | < 1e-05 |  |  | < 1e-05 | 
7 | A15U C68U | 1.92e-05 ± 9.6e-06 | 0.000277 ± 2.2e-05 | 4.94e-05 ± 7.4e-06 | 0.000409 ± 2.7e-05 | 0.000127 ± 9.9e-06
8 | G29C C50G C61A U65C | 7.48e-05 ± 2.1e-05 |  |  |  | 
9 | C16U G38U | < 1e-05 |  |  | < 1e-05 | < 1e-05
10 | G29A A42C | < 1e-05 |  | < 1e-05 | < 1e-05 | < 1e-05
11 | A15U C50U G60U | < 1e-05 |  |  | < 1e-05 | 
12 | C16U G40U G60C | < 1e-05 |  |  |  | 
13 | C19A G29U A36U G41A | < 1e-05 |  |  | < 1e-05 | 
14 | A15G U69G | 3.29e-05 ± 1.2e-05 | 0.00012 ± 1.7e-05 | 5.34e-05 ± 2.7e-05 | 7.05e-05 ± 9.2e-06 | 6.2e-05 ± 1.2e-05
15 | A15U G29C G35A G40A | < 1e-05 |  |  |  | < 1e-05
16 | C16U G32U A48U U55G | < 1e-05 |  |  |  | 
17 | C16U G41U C67U | < 1e-05 |  |  |  | 
18 | G29A C34A G43A G44U U47C G59A G63U | < 1e-05 |  |  | < 1e-05 | 
19 | C16G U47A | 6.21e-05 ± 9.9e-06 |  | 0.00027 ± 3.9e-05 |  | 
20 | G29C G51A | < 1e-05 |  |  | < 1e-05 | 
21 | A15G G38U G40U | < 1e-05 |  |  |  | 
22 | C16G A64G C68G | < 1e-05 |  |  |  | 
23 | A15G G35C U47C A52G | < 1e-05 |  |  | < 1e-05 | 
24 | G29C U30G | 8.92e-05 ± 1.8e-05 | 0.00147 ± 0.00036 | 0.000309 ± 6.9e-05 | 0.00472 ± 0.00086 | 0.00138 ± 0.00041
25 | C16G U30G C61G | < 1e-05 |  |  | < 1e-05 | 
26 | G29C G37U U47G G63A | < 1e-05 |  |  | < 1e-05 | 
27 | G29C U31C A39U G44A C50U | < 1e-05 | < 1e-05 |  | < 1e-05 | 
28 | C16G A53G C67A | 2.96e-05 ± 1.3e-05 |  |  | 0.000212 ± 5.9e-05 | 

Row | Variant | self-cleavage kobs at 40 uM GlcN6P (glucosamine-6-phosphate [1]) [s⁻¹] | self-cleavage kobs at 2500 uM GlcN6P (glucosamine-6-phosphate [2]) [s⁻¹] | self-cleavage kobs at 160 uM GlcN6P (glucosamine-6-phosphate [3]) [s⁻¹] | self-cleavage kobs at 10000 uM GlcN6P (glucosamine-6-phosphate [4]) [s⁻¹] | self-cleavage kobs at 640 uM GlcN6P (glucosamine-6-phosphate [5]) [s⁻¹]
29 | G29A U56A G63C | < 1e-05 |  |  |  | 
30 | G29A G63U | < 1e-05 |  | < 1e-05 | < 1e-05 | 
31 | G29A A48U U54A | < 1e-05 |  |  | 3.57e-05 ± 1.5e-05 | 
32 | C16U G40A | 0.000204 ± 2e-05 | 0.00398 ± 0.00098 | 0.000448 ± 7e-05 | 0.00622 ± 0.00083 | 0.000996 ± 0.00017
33 | C16G U54G | 0.000177 ± 3.8e-05 | 0.00175 ± 0.0004 | 0.000312 ± 6.7e-05 | 0.00291 ± 0.00046 | 0.00211 ± 0.0008
34 | G29A U45G G60C | < 1e-05 | < 1e-05 |  | < 1e-05 | 
35 | G29A G35C G37A | < 1e-05 |  |  | < 1e-05 | 
36 | A15G G38U U47A C68G | 9.09e-05 ± 3.3e-05 |  |  |  | 
37 | A15U G59U | < 1e-05 |  | < 1e-05 |  | 
38 | C16G G40A A53G C68U | < 1e-05 |  |  |  | 
39 | A15U C50G | 3.42e-05 ± 8.1e-06 | 7.94e-05 ± 1.4e-05 | 8.86e-05 ± 1.4e-05 |  | 0.000494 ± 0.00023
40 | C16G A36G | < 1e-05 |  |  |  | 
41 | C16A U56G G60U | < 1e-05 |  |  |  | < 1e-05
42 | C16A G37C G51C | < 1e-05 | < 1e-05 |  |  | 
43 | A15G G59A C61U | < 1e-05 | < 1e-05 | < 1e-05 | < 1e-05 | < 1e-05
44 | C16G C34A | < 1e-05 |  |  | < 1e-05 | < 1e-05
45 | G29C U56G C70U | 6.27e-05 ± 2.2e-05 |  |  | 0.00013 ± 3.2e-05 | 
46 | G29A A52U C70U | < 1e-05 |  |  |  | 
47 | C16G A36G U49G | < 1e-05 |  |  | < 1e-05 | 
48 | C16G G44U U47C A52C U56G | < 1e-05 |  |  | < 1e-05 | 
49 | A15U C34A A52U | < 1e-05 |  |  |  | 
50 | G29C G32C C68G C71U | < 1e-05 |  |  | < 1e-05 | 
51 | A15G U25A C50G C70U | 6.43e-05 ± 1.3e-05 |  |  | 6.03e-05 ± 1.6e-05 | 
52 | G26U C70U | 0.000967 ± 0.00041 |  |  |  | 
53 | C16U G63C C67G | < 1e-05 |  |  |  | 
54 | G29C G51U U55G | < 1e-05 |  |  | < 1e-05 | 
55 | C16G G44U C58G G66A | < 1e-05 |  |  |  | 
